Drawing on article PMC12820563, “FoxP3 forms a head-to-head dimer in vivo and stabilizes its multimerization on adjacent microsatellites”, this text covers binding signal for 31 sequences.

The other results are listed elsewhere or left out.

This assay has as its target T1, MBP-FoxP1dN (Mus musculus, UniProt P58462 326-579).
T1 sequence: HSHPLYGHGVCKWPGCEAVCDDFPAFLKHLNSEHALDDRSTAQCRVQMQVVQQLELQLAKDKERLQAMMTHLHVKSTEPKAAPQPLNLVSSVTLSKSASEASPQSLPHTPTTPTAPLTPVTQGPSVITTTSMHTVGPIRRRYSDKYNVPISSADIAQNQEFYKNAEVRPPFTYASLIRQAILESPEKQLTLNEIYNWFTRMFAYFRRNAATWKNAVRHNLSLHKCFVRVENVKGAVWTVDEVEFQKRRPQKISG
The assay can be described thus: PD-seq (MBP pull-down with sequencing); 20 mM Tris-HCl pH 7.5, 100 mM NaCl, 1.5 mM MgCl2, 0.4 uM protein, 0.1 uM dsDNA library, 30 min, room temperature, amylose pull-down; high values mean tight binding. As to conditions: protein: recombinant; tags: His6-MBP; chain copies: 2; dsDNA, one strand shown. Summed up: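 A degenerate double-stranded DNA library, filled in with Klenow, was added at 0.1 µM to 0.4 µM His6-MBP-tagged mouse FoxP3 or FoxP1 fragment lacking the N-terminus, expressed in E. coli. Incubation lasted 30 min at room temperature in Tris pH 7.5 buffer with NaCl and MgCl2, after which complexes were collected on amylose resin, washed three times, digested with proteinase K to free the DNA, barcoded by PCR and sequenced by Illumina. Binding is the pooled-replicate reads-per-million enrichment of pull-down over input.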
With “GATGATTGTTCTCCCAGCTGATGAATTGGGATGCTCGAGTAAACAAATTTTCCTAATCTTTCTGTTCAAGCGCCATCTAC”, the binding signal is 1.11 RPM ratio (pull-down/input).

For “GATGATTGTTCTCCCAGCTGATGAATTGAGGGACTCGAGTAAACAAATTTTCCTAATCTTTCTGTTCAAGCGCCATCTAC”, the binding signal was 0.774 RPM ratio (pull-down/input).

For the sequence “GATGATTGTTCTCCCAGCTGATGAATTCGTCTCCTCGAGTAAACAAATTTTCCTAATCTTTCTGTTCAAGCGCCATCTAC”, the binding signal was 0.869 RPM ratio (pull-down/input).

“GATGATTGTTCTCCCAGCTGATGAATTCTGTCACTCGAGTAAACAAATTTTCCTAATCTTTCTGTTCAAGCGCCATCTAC”: the binding signal is 1.09 RPM ratio (pull-down/input).

Take “GATGATTGTTCTCCCAGCTGATGAATTGGTCGATTCGAGTAAACAAATTTTCCTAATCTTTCTGTTCAAGCGCCATCTAC”: the binding signal is 0.891 RPM ratio (pull-down/input).

With “GATGATTGTTCTCCCAGCTGATGAATTGTTAATTTCGAGTAAACAAATTTTCCTAATCTTTCTGTTCAAGCGCCATCTAC”, the binding signal is 1.43 RPM ratio (pull-down/input).

On to “GATGATTGTTCTCCCAGCTGATGAATTACGGTCCTCGAGTAAACAAATTTTCCTAATCTTTCTGTTCAAGCGCCATCTAC”, for which the binding signal was 0.864 RPM ratio (pull-down/input).

For the sequence “GATGATTGTTCTCCCAGCTGATGAATTATCGCATTCGAGTAAACAAATTTTCCTAATCTTTCTGTTCAAGCGCCATCTAC”, the binding signal was 1.4 RPM ratio (pull-down/input).

For the sequence “GATGATTGTTCTCCCAGCTGATGAATTGCTCGTATCGAGTAAACAAATTTTCCTAATCTTTCTGTTCAAGCGCCATCTAC”, the binding signal is 1.05 RPM ratio (pull-down/input).

For the sequence “GATGATTGTTCTCCCAGCTGATGAATTTGTGTGATCGAGTAAACAAATTTTCCTAATCTTTCTGTTCAAGCGCCATCTAC”, the binding signal was 1.3 RPM ratio (pull-down/input).

For “GATGATTGTTCTCCCAGCTGATGAATTATTATACTCGAGTAAACAAATTTTCCTAATCTTTCTGTTCAAGCGCCATCTAC”, the binding signal is 1.17 RPM ratio (pull-down/input).

Consider “GATGATTGTTCTCCCAGCTGATGAATTTTCCATATCGAGTAAACAAATTTTCCTAATCTTTCTGTTCAAGCGCCATCTAC”, for which the binding signal was 0.875 RPM ratio (pull-down/input).

Regarding “GATGATTGTTCTCCCAGCTGATGAATTCAACCCCTCGAGTAAACAAATTTTCCTAATCTTTCTGTTCAAGCGCCATCTAC”, the binding signal was 0.806 RPM ratio (pull-down/input).

For the sequence “GATGATTGTTCTCCCAGCTGATGAATTGTATGTTTCGAGTAAACAAATTTTCCTAATCTTTCTGTTCAAGCGCCATCTAC”, the binding signal was 1.58 RPM ratio (pull-down/input).

For the sequence “GATGATTGTTCTCCCAGCTGATGAATTCCGCTGCTCGAGTAAACAAATTTTCCTAATCTTTCTGTTCAAGCGCCATCTAC”, the binding signal is 0.807 RPM ratio (pull-down/input).

On to “GATGATTGTTCTCCCAGCTGATGAATTGGAATGTTCGAGTAAACAAATTTTCCTAATCTTTCTGTTCAAGCGCCATCTAC”, for which the binding signal was 0.856 RPM ratio (pull-down/input).

Turning to “GATGATTGTTCTCCCAGCTGATGAATTGCCCGGATCGAGTAAACAAATTTTCCTAATCTTTCTGTTCAAGCGCCATCTAC”, the binding signal is 0.853 RPM ratio (pull-down/input).

Regarding “GATGATTGTTCTCCCAGCTGATGAATTGTTCCCCTCGAGTAAACAAATTTTCCTAATCTTTCTGTTCAAGCGCCATCTAC”, the binding signal was 1.05 RPM ratio (pull-down/input).

As for “GATGATTGTTCTCCCAGCTGATGAATTCCCACGTTCGAGTAAACAAATTTTCCTAATCTTTCTGTTCAAGCGCCATCTAC”, the binding signal was 0.833 RPM ratio (pull-down/input).

In the case of “GATGATTGTTCTCCCAGCTGATGAATTCGAGGTCTCGAGTAAACAAATTTTCCTAATCTTTCTGTTCAAGCGCCATCTAC”, the binding signal was 0.83 RPM ratio (pull-down/input).

Take “GATGATTGTTCTCCCAGCTGATGAATTGTCCGCCTCGAGTAAACAAATTTTCCTAATCTTTCTGTTCAAGCGCCATCTAC”: the binding signal is 0.977 RPM ratio (pull-down/input).

Take “GATGATTGTTCTCCCAGCTGATGAATTCGGTCCCTCGAGTAAACAAATTTTCCTAATCTTTCTGTTCAAGCGCCATCTAC”: the binding signal was 0.768 RPM ratio (pull-down/input).

Turning to “GATGATTGTTCTCCCAGCTGATGAATTCGGCACTTCGAGTAAACAAATTTTCCTAATCTTTCTGTTCAAGCGCCATCTAC”, the binding signal was 0.87 RPM ratio (pull-down/input).

Turning to “GATGATTGTTCTCCCAGCTGATGAATTTCAATATTCGAGTAAACAAATTTTCCTAATCTTTCTGTTCAAGCGCCATCTAC”, the binding signal was 0.922 RPM ratio (pull-down/input).

Take “GATGATTGTTCTCCCAGCTGATGAATTCTAATGGTCGAGTAAACAAATTTTCCTAATCTTTCTGTTCAAGCGCCATCTAC”: the binding signal was 0.846 RPM ratio (pull-down/input).

For “GATGATTGTTCTCCCAGCTGATGAATTCTGTTGGTCGAGTAAACAAATTTTCCTAATCTTTCTGTTCAAGCGCCATCTAC”, the binding signal was 1.5 RPM ratio (pull-down/input).

On to “GATGATTGTTCTCCCAGCTGATGAATTTGAGGACTCGAGTAAACAAATTTTCCTAATCTTTCTGTTCAAGCGCCATCTAC”, for which the binding signal was 0.703 RPM ratio (pull-down/input).

Turning to “GATGATTGTTCTCCCAGCTGATGAATTAAGTTGATCGAGTAAACAAATTTTCCTAATCTTTCTGTTCAAGCGCCATCTAC”, the binding signal was 1.17 RPM ratio (pull-down/input).

As for “GATGATTGTTCTCCCAGCTGATGAATTTGCGATTTCGAGTAAACAAATTTTCCTAATCTTTCTGTTCAAGCGCCATCTAC”, the binding signal was 1.07 RPM ratio (pull-down/input).

On to “GATGATTGTTCTCCCAGCTGATGAATTTGCCGACTCGAGTAAACAAATTTTCCTAATCTTTCTGTTCAAGCGCCATCTAC”, for which the binding signal was 0.868 RPM ratio (pull-down/input).

Take “GATGATTGTTCTCCCAGCTGATGAATTAGGCCGCTCGAGTAAACAAATTTTCCTAATCTTTCTGTTCAAGCGCCATCTAC”: the binding signal was 0.851 RPM ratio (pull-down/input).
